Laboratory results from US11618753B2 (priority 2018, dated 2023).

What follows are compounds tested on MLKL phosphorylation, HT29-L23 human colorectal adenocarcinoma cells (assay: cells). Conditions: read-out: pMLKL HCS Cell Assay (IC50, uM).
For COc1ncc(-c2cc(C(F)(F)F)c3c(N)ncnn23)cc1C(=O)NC1CCCN(c2ccccc2)C1 (stereo not drawn) [Example 1694, 5-(4-amino-5-(trifluoromethyl)pyrrolo[2,1-f][1,2,4]triazin-7-yl)-2-methoxy-N-(1-phenylpiperidin-3-yl)nicotinamide], the IC50 was 0.094 µM. Work on Cc1ccc(-c2cc(C(F)(F)F)c3c(N)ncnn23)c(F)c1C(=O)N[C@@H]1CN(C(=O)C2CCC(F)(F)CC2)C[C@@H]1F [Example 755, 3-[4-amino-5-(trifluoromethyl)pyrrolo[2,1-f][1,2,4]triazin-7-yl]-N-[(3R,4S)-1-(4,4-difluorocyclohexanecarbonyl)-4-fluoropyrrolidin-3-yl]-2-fluoro-6-methylbenzamide] yielded an IC50 of 0.0096 µM. With C=CC(C)OC(=O)N1C[C@H](F)[C@H](NC(=O)c2cc(-c3cc(C(F)(F)F)c4c(N)ncnn34)cnc2OC)C1 (stereo partly drawn) [Example 1440, but-3-en-2-yl (3R,4S)-3-{5-[4-amino-5-(trifluoromethyl)pyrrolo[2,1-f][1,2,4]triazin-7-yl]-2-methoxypyridine-3-amido}-4-fluoropyrrolidine-1-carboxylate] the IC50 was 0.0039 µM. Compound COc1ncc(-c2cc(C(F)(F)F)c3c(N)ncnn23)cc1C(=O)Nc1cn(CC(C)(O)C(F)(F)F)cn1 (stereo not drawn) [Example 1779, 5-(4-amino-5-(trifluoromethyl)pyrrolo[2,1-f][1,2,4]triazin-7-yl)-2-methoxy-N-(1-(3,3,3-trifluoro-2-hydroxy-2-methylpropyl)-1H-imidazol-4-yl)nicotinamide] has an IC50 of 0.485 µM. Work on Cc1c(F)cc(-c2cc(C(F)(F)F)c3c(N)ncnn23)cc1C(=O)N[C@@H]1CN(C(=O)CC(O)(C(F)(F)F)C(F)(F)F)C[C@@H]1F [Example 562, 5-(4-amino-5-(trifluoromethyl)pyrrolo[2,1-f][1,2,4]triazin-7-yl)-3-fluoro-N-((3R,4S)-4-fluoro-1-(4,4,4-trifluoro-3-hydroxy-3-(trifluoromethyl)butanoyl)pyrrolidin-3-yl)-2-methylbenzamide] yielded an IC50 of 0.001 µM. Compound Cc1cc(F)c(-c2cc(C(F)(F)F)c3c(N)ncnn23)cc1C(=O)N[C@@H]1CN(C(=O)C2CCCC2)C[C@@H]1F [Example 797, 5-[4-amino-5-(trifluoromethyl)pyrrolo[2,1-f][1,2,4]triazin-7-yl]-N-[(3R,4S)-1-cyclopentanecarbonyl-4-fluoropyrrolidin-3-yl]-4-fluoro-2-methylbenzamide] has an IC50 of 0.0022 µM. COc1ncc(-c2cc(C(F)(F)F)c3c(N)ncnn23)cc1C(=O)NC1CN(C(=O)C2CC(F)(F)C2)CC1(F)F (stereo not drawn) [Example 1345, 5-[4-amino-5-(trifluoromethyl)pyrrolo[2,1-f][1,2,4]triazin-7-yl]-N-[1-(3,3-difluorocyclobutanecarbonyl)-4,4-difluoropyrrolidin-3-yl]-2-methoxypyridine-3-carboxamide] gave an IC50 of 0.031 µM. For Nc1ncnn2c(-c3cccc(C(=O)N[C@@H]4CN(C(=O)c5ccc(F)cc5)C[C@@H]4F)c3F)cc(C(F)(F)F)c12 [Example 766, 3-[4-amino-5-(trifluoromethyl)pyrrolo[2,1-f][1,2,4]triazin-7-yl]-2-fluoro-N-[(3R,4S)-4-fluoro-1-(4-fluorobenzoyl)pyrrolidin-3-yl]benzamide], the IC50 was 0.076 µM. COc1ncc(-c2cc(C(F)(F)F)c3c(N)ncnn23)cc1C(=O)NC1CN(C(C)c2ccnc(F)c2F)C[C@@H]1F (stereo partly drawn) [Example 1387, 5-[4-amino-5-(trifluoromethyl)-pyrrolo[2,1-f][1,2,4]triazin-7-yl]-N-[(3R,4S)-1-[1-(2,3-difluoropyridin-4-yl)ethyl]-4-fluoropyrrolidin-3-yl]-2-methoxypyridine-3-carbox-amide] showed an IC50 of 0.004 µM. Compound COc1ncc(-c2cc(C(F)(F)F)c3c(N)ncnn23)cc1C(=O)N[C@@H]1CN(C(=O)C2CCC(F)(F)CC2)C[C@@H]1C [Example 299, 5-[4-amino-5-(trifluoromethyl)pyrrolo[2,1-f][1,2,4]triazin-7-yl]-N-[(3S,4S)-1-(4,4-difluorocyclo-hexanecarbonyl)-4-methyl-pyrrolidin-3-yl]-2-methoxy-pyridine-3-carboxamide] has an IC50 of 0.195 µM. In the case of COc1ncc(-c2cc(Cn3cncn3)c3c(N)ncnn23)cc1C(=O)N[C@@H]1CN(C(=O)C2CC(F)(F)C2)C[C@@H]1F [Example 1707, 5-(5-((1H-1,2,4-triazol-1-yl)methyl)-4-aminopyrrolo[2,1-f][1,2,4]triazin-7-yl)-N-((3R,4S)-1-(3,3-difluorocyclobutane-1-carbonyl)-4-fluoropyrrolidin-3-yl)-2-methoxynicotinamide], the IC50 is reported as 0.012 µM. COc1ncc(-c2cc(C(F)(F)F)c3c(N)ncnn23)cc1C(=O)NC1CN(C(C)c2cnc(C)s2)C[C@@H]1F (stereo partly drawn) [Example 1400, 5-[4-amino-5-(trifluoromethyl)-pyrrolo[2,1-f][1,2,4]triazin-7-yl]-N-[(3R,4S)-4-fluoro-1-[1-(2-methyl-1,3-thiazol-5-yl)-ethyl]pyrrolidin-3-yl]-2-methoxypyridine-3-carbox-amide] gave an IC50 of 0.0041 µM. With Nc1ncnn2c(-c3cc(F)cc(C(=O)N[C@@H]4CN(C(=O)C5CCC(F)(F)CC5)C[C@@H]4F)c3)cc(C(F)(F)F)c12 [Example 609, 3-[4-amino-5-(trifluoromethyl)pyrrolo[2,1-f][1,2,4]triazin-7-yl]-N-[(3R,4S)-1-(4,4-difluorocyclohexanecarbonyl)-4-fluoropyrrolidin-3-yl]-5-fluorobenzamide] the IC50 was 0.079 µM. Cc1ccc(-c2cc(CN3CCC(C(F)(F)F)CC3)c3c(N)ncnn23)cc1C(=O)N[C@@H]1CN(C(=O)CC(O)(C(F)(F)F)C(F)(F)F)C[C@@H]1F [Example 1650, 5-(4-amino-5-{[4-(trifluoromethyl)piperidin-1-yl]methyl}pyrrolo[2,1-f][1,2,4]triazin-7-yl)-N-[(3R,4S)-4-fluoro-1-[4,4,4-trifluoro-3-hydroxy-3-(trifluoromethyl)butanoyl]pyrrolidin-3-yl]-2-methylbenzamide] gave an IC50 of 0.0017 µM. With COc1ncc(-c2cc(C(F)(F)F)c3c(N)ncnn23)cc1C(=O)N[C@@H]1CN(C(=O)C(C)(C)n2cnc(C(F)(F)F)c2)C[C@@H]1F [Example 1674, 5-(4-amino-5-(trifluoromethyl)pyrrolo[2,1-f][1,2,4]triazin-7-yl)-N-((3R,4S)-4-fluoro-1-(2-methyl-2-(4-(trifluoromethyl)-1H-imidazol-1-yl)propanoyl)pyrrolidin-3-yl)-2-methoxynicotinamide] the IC50 was 0.051 µM. In the case of COc1ncc(-c2cc(C(F)(F)F)c3c(N)ncnn23)cc1C(=O)N1CCCC(C)(C(O)c2ccc(F)cc2)C1 (stereo not drawn) [Example 1737, (5-(4-amino-5-(trifluoromethyl)pyrrolo[2,1-f][1,2,4]triazin-7-yl)-2-methoxypyridin-3-yl)(3-((4-fluorophenyl)(hydroxy)methyl)-3-methylpiperidin-1-yl)methanone], the IC50 is reported as 0.036 µM. COc1ncc(-c2cc(C(F)(F)F)c3c(N)ncnn23)cc1C(=O)NC1CN(Cc2ccc(F)c(C)c2)CC1F (racemic) [Example 235, 5-[4-amino-5-(trifluoromethyl)pyrrolo[2,1-f][1,2,4]triazin-7-yl]-N-{4-fluoro-1-[(4-fluoro-3-methylphenyl)methyl]pyrrolidin-3-yl}-2-methoxypyridine-3-carboxamide] showed an IC50 of 0.025 µM. For COc1ncc(-c2cc(CN3CCC(F)(F)CC3)c3c(N)ncnn23)cc1C(=O)N[C@@H]1CN(C(=O)c2ccccn2)C[C@@H]1F [Example 1254, 5-{4-amino-5-[(4,4-difluoropiperidin-1-yl)methyl]pyrrolo[2,1-f][1,2,4]triazin-7-yl}-N-[(3R,4S)-4-fluoro-1-(pyridine-2-carbonyl)pyrrolidin-3-yl]-2-methoxypyridine-3-carboxamide], the IC50 was 0.0015 µM. [2H]C([2H])([2H])Oc1ncc(-c2cc(CN3CC(F)(F)C3)c3c(N)ncnn23)cc1C(=O)N[C@@H]1CN(C(=O)C2CC2(F)F)C[C@@H]1F (stereo partly drawn) [Example 1287, 5-{4-amino-5-[(3,3-difluoroazetidin-1-yl)methyl]pyrrolo[2,1-f][1,2,4]triazin-7-yl}-N-[(3R,4S)-1-(2,2-difluorocyclopropanecarbonyl)-4-fluoropyrrolidin-3-yl]-2-(methoxy-d3)nicotinamide] gave an IC50 of 0.00075 µM. For COc1ncc(-c2cc(CN3CCC(F)(F)CC3)c3c(N)ncnn23)cc1C(=O)NC1CN(S(=O)(=O)C(C)C(F)(F)F)C[C@@H]1F (stereo partly drawn) [Example 1543, 5-{4-amino-5-[(4,4-difluoropiperidin-1-yl)methyl]pyrrolo[2,1-f][1,2,4]triazin-7-yl}-N-[(3R,4S)-4-fluoro-1-(1,1,1-trifluoropropane-2-sulfonyl)pyrrolidin-3-yl]-2-methoxypyridine-3-carboxamide], the IC50 was 0.0032 µM. With COc1ncc(-c2cc(C(F)(F)F)c3c(N)ncnn23)cc1C(=O)N[C@@H]1CN(C(C)c2cscn2)C[C@@H]1F (stereo partly drawn) [Example 1402, 5-[4-amino-5-(trifluoromethyl)-pyrrolo[2,1-f][1,2,4]triazin-7-yl]-N-[(3R,4S)-4-fluoro-1-[1-(1,3-thiazol-4-yl)ethyl]-pyrrolidin-3-yl]-2-methoxy-pyridine-3-carboxamide] the IC50 was 0.017 µM. Compound CCc1ccc(-c2cc(C(F)(F)F)c3c(N)ncnn23)c(F)c1C(=O)N[C@@H]1CN(C(=O)CC(C)(O)C(F)(F)F)C[C@@H]1F (stereo partly drawn) [Example 734, 3-[4-amino-5-(trifluoromethyl)pyrrolo[2,1-f][1,2,4]triazin-7-yl]-6-ethyl-2-fluoro-N-[(3R,4S)-4-fluoro-1-(4,4,4-trifluoro-3-hydroxy-3-methylbutanoyl)pyrrolidin-3-yl]benzamide] has an IC50 of 0.026 µM. In the case of COc1ncc(-c2c(-c3nnnn3C)cc3c(N)ncnn23)cc1C(=O)N[C@@H]1CN(C(=O)[C@@](C)(O)C(F)(F)F)C[C@@H]1F [Example 544, 5-(4-amino-6-(1-methyl-1H-tetrazol-5-yl)pyrrolo[2,1-f][1,2,4]triazin-7-yl)-N-((3R,4S)-4-fluoro-1-((R)-3,3,3-trifluoro-2-hydroxy-2-methylpropanoyl)pyrrolidin-3-yl)-2-methoxynicotinamide], the IC50 is reported as 5.67 µM. COc1ncc(-c2c(C#N)cc3c(N)ncnn23)cc1C(=O)N[C@@H]1CN(C(=O)C2CCC(F)(F)C2)C[C@@H]1F (stereo partly drawn) [Example 553, 5-(4-amino-6-cyanopyrrolo[2,1-f][1,2,4]triazin-7-yl)-N-((3R,4S)-1-(3,3-difluorocyclopentane-1-carbonyl)-4-fluoropyrrolidin-3-yl)-2-methoxynicotinamide] gave an IC50 of 0.943 µM.
